Results taken from PubChem BioAssay AID1346428 (National Center for Advancing Translational Sciences (NCATS), 2018).
About 1,200 (2.5%) of roughly 48,000 compounds were called active. Inconclusive results (about 2%) are left out.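 How the source made its calls: active means activation of at least 60% and not above a set upper limit (about 1 call in 100 departs from these limits); inconclusive means activation of 40% to 60%, or above that upper limit; inactive means activation under 40%.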 The list shows a part of the results.

target: Probable G-protein coupled receptor 32 (Homo sapiens) (UniProt O75388); assay: qHTS for Agonists of Human Resolvin D1 Receptor DRV1; settings: CHO-K1 GPR32 beta-arrestin PathHunter luminescence, 90 min; at 76.9 µM; stronger effect = higher value; zero percent set by DMSO-only wells
UniProt O75388, sequence (O75388 whole entry, looked up): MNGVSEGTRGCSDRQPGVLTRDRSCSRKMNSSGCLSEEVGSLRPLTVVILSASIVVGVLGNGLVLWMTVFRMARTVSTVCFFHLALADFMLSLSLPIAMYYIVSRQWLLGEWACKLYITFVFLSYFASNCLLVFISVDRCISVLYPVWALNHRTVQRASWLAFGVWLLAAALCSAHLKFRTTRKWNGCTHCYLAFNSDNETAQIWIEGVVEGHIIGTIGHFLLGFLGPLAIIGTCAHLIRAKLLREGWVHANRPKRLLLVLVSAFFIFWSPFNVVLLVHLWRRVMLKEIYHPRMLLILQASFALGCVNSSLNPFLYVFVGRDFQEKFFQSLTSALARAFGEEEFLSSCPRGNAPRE
Outline: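 Using DMSO wells as EC0, agonist-induced signal was taken as chemiluminescence from beta-Gal reconstituted upon beta-arrestin recruitment to GPR32 in CHO-K1 cells after 90 min compound treatment.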

activation, inactive:
Cc1cc(OCCCSc2nc(-c3ccc(C(C)(C)C)cc3)nc3cc(=O)[nH]n23)ccc1Cl -34.8%, COc1cc(Cl)c(NC(=O)C2CCN(S(=O)(=O)c3c(C)noc3/C=C/c3ccccc3F)CC2)c(OC)c1 -5.27%, CC(C)c1ccc(NC(=O)CCCc2nc(-c3ccc(Cl)cc3)no2)cc1 2.93%, Cc1nc2ccc(S(=O)(=O)CCC(=O)Nc3ccc(F)cc3C)cc2s1 3.53%, Cc1nc(N2CCCC2)c2c(C(=O)N3CCN(c4cccc(C)c4C)CC3)c(C)oc2n1 -33.2%, CC(C)c1ccccc1NC(=O)CN1C(=O)c2cccc3cccc1c23 5.36%, O=C(CSc1nc(-c2ccccc2)[nH]c1-c1ccccc1)Nc1ccc2c(c1)OCCO2 -8.72%, Cc1ccc(Nc2cc(C)c(C#N)c3nc4ccccc4n23)cc1Cl 9.64%, CCCSCCCNC(=O)c1ccc2c(c1)nc1n2CCCCC1 -13%, CN(CC(=O)Nc1ccccc1Cl)S(=O)(=O)c1ccc(C(=O)N2CCOCC2)s1 0.249%, COc1ccc(S(=O)(=O)N2CCN(Cc3ccc4c(c3)OCO4)CC2)cc1OC -3.52%, CC(C)c1cc(-c2nc(-c3ccccc3)no2)n[nH]1 -2.58%, COCCNC(=O)c1nn(-c2ccc(Cl)cc2)nc1CO -0.679%, COc1ccc(CNC(=O)c2cc3c(=O)n(C)c4ccccc4c3n2C)cc1 4.29%, Cn1cnc(S(=O)(=O)N2CCC(C(=O)NCc3ccc(Cl)cc3)CC2)c1 -10.3%, O=C(O)[C@@H]1C[C@H](C(=O)O)N1 2.31%, O=C(Cc1ccccc1)N(Cc1cccnc1)c1nc2ccc(F)cc2s1 -24.9%, O=C(CSc1ccccc1)NCc1ccc2c(c1)CCN2C(=O)c1ccc(F)cc1 -8.21%, CCc1ccc2oc(-c3ccc(NC(=O)c4cc(OC)c(OC)c(OC)c4)cc3)nc2c1 23.9%, CCOC(=O)c1ccc(N2C(=O)c3[nH]nc(-c4ccc(OCC)cc4)c3C2c2ccc(OC)cc2OC)cc1 (centres undefined) -8.81%, O=C(Nc1cccc2cccnc12)c1ccc(F)cc1 -23.2%, CCOc1cc(C2CC(=O)Nc3nc(SCc4ccccc4)[nH]c(=O)c32)ccc1O (centres undefined) -1.09%, CCc1ccc(CNC(=O)CCCN2C(=O)c3cccnc3Oc3ccc(Cl)cc32)cc1 -16.9%, Cc1ccccc1-c1nnc(C2CCN(S(=O)(=O)c3ccc(Cl)cc3)CC2)o1 -5.7%
